Assay results as given in paper PMC10707739.

Test system: P02185
Experiment: native gel or EMSA; blue native PAGE (BN-PAGE, 6-21% gradient gel, no denaturant in the gel) of amyloids (formed 24 h, 40 °C, pH 5.5, 5 mg/mL, 10 mM sodium phosphate) after 24 h incubation at 0-8 M urea, 20 °C, 0.5 mg/mL; band and lane intensities give the fractions of amyloid, ~1 MDa intermediate …

Substance | [urea]1/2Agr-M (midpoint of the transition intermediate aggregates to monomer) [M] | fraction of aggregates at 8 M urea (fAgr(8M urea))
ApoMb M131W (no sequence given) | 5.1 | 
ApoMb L115A (no sequence given) | 5.6 | 
ApoMb V10F (no sequence given) | 5.8 | 
ApoMb L115F (no sequence given) | 5.7 | is not zero and is in the range 0.15–0.5
ApoMb M131A (no sequence given) | 4.8 | 
ApoMb V10A (no sequence given) | 4.8 | 
